Data on 3 molecules can be found in patent US7410975B2, “Small molecule toll-like receptor (TLR) antagonists” (Coley Pharmaceutical Group, Inc., priority 2003, dated 2008).

Structures can show the parent of a compound that is named as a salt.

The target of the assay is T1, human TLR9 (hTLR9) (Homo sapiens, UniProt Q9NR96).
T1 construct: expressed in transfected cells
T1 sequence (Q9NR96 26-1032): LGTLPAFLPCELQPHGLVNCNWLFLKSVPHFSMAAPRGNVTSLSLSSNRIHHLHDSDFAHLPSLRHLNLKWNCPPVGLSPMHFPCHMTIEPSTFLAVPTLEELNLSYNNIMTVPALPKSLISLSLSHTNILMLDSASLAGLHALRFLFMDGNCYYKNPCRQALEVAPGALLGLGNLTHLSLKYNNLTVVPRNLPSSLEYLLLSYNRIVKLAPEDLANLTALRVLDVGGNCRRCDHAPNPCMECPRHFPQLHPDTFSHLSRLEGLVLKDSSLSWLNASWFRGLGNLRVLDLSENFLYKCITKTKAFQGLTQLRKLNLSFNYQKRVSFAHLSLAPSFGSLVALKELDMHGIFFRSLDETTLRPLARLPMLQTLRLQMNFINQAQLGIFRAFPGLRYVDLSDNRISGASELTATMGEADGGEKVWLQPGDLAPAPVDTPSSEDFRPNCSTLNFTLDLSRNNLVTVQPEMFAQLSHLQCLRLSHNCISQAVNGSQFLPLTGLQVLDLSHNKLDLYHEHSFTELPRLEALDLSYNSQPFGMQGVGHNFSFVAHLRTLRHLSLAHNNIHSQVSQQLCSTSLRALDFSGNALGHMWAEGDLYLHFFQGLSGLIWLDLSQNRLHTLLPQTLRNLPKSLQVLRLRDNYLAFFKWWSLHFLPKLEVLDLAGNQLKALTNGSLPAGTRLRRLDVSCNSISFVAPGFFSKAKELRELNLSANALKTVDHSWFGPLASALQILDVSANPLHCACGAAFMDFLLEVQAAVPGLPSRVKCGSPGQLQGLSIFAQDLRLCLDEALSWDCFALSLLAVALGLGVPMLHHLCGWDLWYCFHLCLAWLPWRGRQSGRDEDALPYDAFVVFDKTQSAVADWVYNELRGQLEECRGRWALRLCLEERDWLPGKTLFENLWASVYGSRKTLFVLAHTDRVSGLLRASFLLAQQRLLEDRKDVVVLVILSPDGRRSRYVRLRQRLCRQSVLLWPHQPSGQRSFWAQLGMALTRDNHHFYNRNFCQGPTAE
The experiment in a line: Antagonist screen, hTLR9-NFκB-293 cells, 6× NF-κB-luciferase reporter, with EC50 of CpG ODN 2006. In kind it is cell-based. Particulars: compound at 0.5, 5, 50 μg/ml, EC50 concentration of CpG ODN 2006, 16 h. The procedure:
Candidate small molecules for initial screening were obtained from a commercially available library of 880 off-patent small molecules selected for structural diversity and proven bioavailability in humans (Prestwick Chemical Library). […] Results were measured as fold induction over baseline luciferase activity measured in the absence of ODN 2006 and compared to fold induction over baseline in the presence of the EC50 concentration of ODN 2006 alone. From this initial screening a number of small molecules were identified as lead compounds and were categorized by structure and activity. Additional screening was performed in like manner using additional small molecules selected from another library or specifically prepared for this purpose.
The method is described in greater detail as follows. The cells for each individual cell clone (hTLR3-NFκB-293, hTLR7-NFκB-293, hTLR8-NFκB-293 and hTLR9-NFκB-293) were counted and seeded one day before the stimulation at 1.5×10^4 cells per well in 96-well cell culture plates. To become adherent the cells were incubated after seeding overnight at 37° C. in 5% CO2 humidified air.
The screen for each compound was performed at the same time for all of the receptors TLR3, TLR7, TLR8 and TLR9. […]
For each screen result a graphical documentation was performed. A numerical score, describing the graphical results, was determined for each compound. […]
The baseline result (measured with addition of the EC50 concentration of the receptor-specific ligand) for each cell culture plate was measured as described above. Antagonistic effects were measured by down regulation compared to the baseline. Antagonists were scored as follows: • 13: compounds for which there was clear down regulation at 0.5 μg/ml, 5 μg/ml, and 50 μg/ml; • 12: compounds for which there was clear down regulation at 5 μg/ml and 50 μg/ml; • 11: compounds for which there was clear down regulation only at 50 μg/ml; • —: compounds for which there was no clear down regulation even at 50 μg/ml. […]
(Reporter assays use an easily measured gene product as a stand-in for the process of interest.)
Turning to `CN1CCN2c3ccccc3Cc3ccccc3C2C1.Cl` (stereo not drawn) [compound 99, Mianserinehydrochloride], the “hTLR9 (inhibitory effect, antagonist score)” value is reported as “— (compounds for which there was no clear down regulation even at 50 μg/ml)”. As for `Cc1ccccc1C(OCCN(C)C)c1ccccc1` (stereo not drawn) [compound 239, Orphenadrinehydrochloride], the figure is 13 (compounds for which there was clear down regulation at 0.5 μg/ml, 5 μg/ml, and 50 μg/ml). As for `CN1CCC[C@@H]1CCO[C@](C)(c1ccccc1)c1ccc(Cl)cc1.O=C(O)/C=C/C(=O)O` [compound 306, Clemastine fumarate], the “hTLR9 (inhibitory effect, antagonist score)” value was 11 (compounds for which there was clear down regulation only at 50 μg/ml).
